pIC50: −log10 of the molar value. By IC50 is meant the dose at which the fit gives 50% viability; fits outside the tested doses are given as limits. For AUC the same curve is integrated over the 256-fold range of doses and scaled to a fraction; the more sensitive the line, the further below 1. An inferred top dose was derived from the fitted curves, not read from the paper. For some of these results: Where an entry number is given, a second screen of the drug exists; the two often differ.
compound: COc1cc2c(NC3CCN(C(C)C)CC3)nc(C3CCCCC3)nc2cc1OCCCN1CCCC1 [UNC0638]; test: Viability of human cancer cell lines after 72 h of drug (GDSC screen); details: top dose 20 µM; screen: GDSC drug entry 1236; top dose inferred
Method: (§1)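 Human cancer cell lines in 384-well plates, medium with 10% serum, drug for 72 h over a 256-fold dose range (nine 2-fold or five 4-fold steps up to the top dose). Adherent lines were fixed and stained with the nucleic acid dye Syto60, suspension lines read with resazurin; signal relative to control wells, capped at 0 and 100%. One two-parameter sigmoid per drug and line, fitted in a mixed model over all curves with the slope shared within a line.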

| Cell Line | AUC | pIC50 |
| --- | --- | --- |
| COR-L32 (small cell lung carcinoma, suspension) | 0.797 | < 4.70 |
| H2810 (mesothelioma, adherent) | 0.803 | 4.95 |
| K-562 (chronic myeloid leukaemia, suspension) | 0.845 | 4.86 |
| NCI-H1650 (lung adenocarcinoma, adherent) | 0.897 | < 4.70 |

same assay, conditions: top dose 40 µM; screen: GDSC drug entry 245

| Cell Line | AUC | pIC50 |
| --- | --- | --- |
| K-562 (chronic myeloid leukaemia, suspension) | 0.711 | 5.02 |

compound: C=CC(=O)Nc1cccc(Nc2nc(NC3CCC(N(C)C)CC3)nc3c2ncn3C(C)C)c1 [WZ3105]; test: as above; details: top dose inferred
Method: as §1

| Cell Line | AUC | pIC50 |
| --- | --- | --- |
| 8-MG-BA (glioma, adherent, top dose 1.28 µM) | 0.741 | 6.43 |
| 22RV1 (prostate, adherent, top dose 1.28 µM) | 0.75 | 6.29 |
| 42-MG-BA (glioma, adherent, top dose 1.28 µM) | 0.891 | < 5.89 |
| 201T (lung adenocarcinoma, adherent, top dose 1.28 µM) | 0.808 | 6.06 |
| 451Lu (melanoma, adherent, top dose 1.28 µM) | 0.895 | < 5.89 |
| 639-V (bladder, adherent, top dose 1.28 µM) | 0.854 | 6.11 |
| 647-V (bladder, adherent, top dose 1.28 µM) | 0.841 | 6.05 |
| 697 (lymphoblastic leukaemia, suspension, top dose 1.28 µM) | 0.457 | 7.20 |
| 769-P (kidney, adherent, top dose 1.28 µM) | 0.916 | < 5.89 |
| 786-0 (kidney, adherent, top dose 1.28 µM) | 0.856 | 6.04 |
| 5637 (bladder, adherent, top dose 1.28 µM) | 0.706 | 6.54 |
| 8305C (thyroid, adherent, top dose 1.28 µM) | 0.916 | < 5.89 |
| 8505C (thyroid, adherent, top dose 1.28 µM) | 0.751 | 6.35 |
| 23132-87 (stomach, adherent, top dose 1.28 µM) | 0.853 | 5.98 |
| A3-KAW (B-cell lymphoma, suspension, top dose 1.28 µM) | 0.758 | 6.44 |
| A4-Fuk (B-cell lymphoma, suspension, top dose 1.28 µM) | 0.972 | < 5.89 |
| A101D (melanoma, adherent, top dose 1.28 µM) | 0.96 | < 5.89 |
| A172 (glioma, adherent, top dose 1.28 µM) | 0.755 | 6.38 |
| A204 (rhabdomyosarcoma, adherent, top dose 1.28 µM) | 0.735 | 6.33 |

| Cell Line | AUC | pIC50 |
| --- | --- | --- |
| A253 (head and neck, adherent, top dose 1.28 µM) | 0.897 | < 5.89 |
| A375 (melanoma, adherent, top dose 1.28 µM) | 0.909 | 5.91 |
| A388 (skin, adherent, top dose 1.28 µM) | 0.833 | 6.00 |
| A427 (non-small cell lung carcinoma, adherent, top dose 1.28 µM) | 0.81 | 6.17 |
| A431 (skin, adherent, top dose 1.28 µM) | 0.748 | 6.40 |
| A498 (kidney, adherent, top dose 1.28 µM) | 0.96 | < 5.89 |
| A673 (rhabdomyosarcoma, adherent, top dose 1.28 µM) | 0.852 | 6.08 |
| A704 (kidney, adherent, top dose 1.28 µM) | 0.989 | < 5.89 |
| A2058 (melanoma, adherent, top dose 1.28 µM) | 0.903 | < 5.89 |
| A2780 (ovary, semi-adherent, top dose 1.28 µM) | 0.537 | 7.00 |
| ABC-1 (lung adenocarcinoma, adherent, top dose 1.28 µM) | 0.748 | 6.31 |
| ACHN (kidney, adherent, top dose 1.28 µM) | 0.977 | < 5.89 |
| AGS (stomach, adherent, top dose 1.28 µM) | 0.885 | 5.94 |
| ALL-PO (lymphoblastic leukaemia, suspension, top dose 1.28 µM) | 0.449 | 7.24 |
| ALL-SIL (T-cell leukaemia, suspension, top dose 10.24 µM) | 0.112 | 7.33 |
| AM-38 (glioma, semi-adherent, top dose 1.28 µM) | 0.916 | < 5.89 |
| AMO-1 (haematopoietic neoplasm, suspension, top dose 1.28 µM) | 0.732 | 6.49 |
| AN3-CA (endometrium, adherent, top dose 1.28 µM) | 0.676 | 6.58 |
| ARH-77 (myeloma, suspension, top dose 1.28 µM) | 0.764 | 6.35 |

| Cell Line | AUC | pIC50 |
| --- | --- | --- |
| ASH-3 (thyroid, adherent, top dose 1.28 µM) | 0.952 | < 5.89 |
| ATN-1 (T-cell lymphoblastic leukaemia, suspension, top dose 10.24 µM) | 0.199 | 7.05 |
| AU565 (breast, adherent, top dose 1.28 µM) | 0.708 | 6.48 |
| AsPC-1 (pancreas, adherent, top dose 1.28 µM) | 0.887 | < 5.89 |
| BB30-HNC (head and neck, adherent, top dose 1.28 µM) | 0.897 | < 5.89 |
| BB49-HNC (head and neck, adherent, top dose 1.28 µM) | 0.957 | < 5.89 |
| BB65-RCC (kidney, adherent, top dose 1.28 µM) | 0.983 | < 5.89 |
| BC-1 (B-cell lymphoma, suspension, top dose 1.28 µM) | 0.754 | 6.43 |
| BC-3 (B-cell lymphoma, suspension, top dose 1.28 µM) | 0.632 | 6.75 |
| BCPAP (thyroid, adherent, top dose 1.28 µM) | 0.703 | 6.55 |
| BE2-M17 (neuroblastoma, adherent, top dose 1.28 µM) | 0.928 | < 5.89 |
| BE-13 (lymphoblastic leukaemia, suspension, top dose 1.28 µM) | 0.549 | 6.97 |
| BEN (non-small cell lung carcinoma, adherent, top dose 1.28 µM) | 0.927 | < 5.89 |
| BFTC-905 (bladder, adherent, top dose 1.28 µM) | 0.783 | 6.34 |
| BFTC-909 (kidney, adherent, top dose 1.28 µM) | 0.981 | < 5.89 |
| BHT-101 (thyroid, adherent, top dose 1.28 µM) | 0.981 | < 5.89 |
| BHY (head and neck, adherent, top dose 1.28 µM) | 0.894 | < 5.89 |
| BICR10 (head and neck, adherent, top dose 1.28 µM) | 0.984 | < 5.89 |
| BICR22 (head and neck, adherent, top dose 1.28 µM) | 0.882 | < 5.89 |

compound: Cc1cccc(-c2[nH]c(C(C)(C)C)nc2-c2ccc3c(c2)OCO3)n1 [SB-505124]; test: as above; details: top dose 10 µM; top dose inferred
Method: as §1

| Cell Line | AUC | pIC50 |
| --- | --- | --- |
| COR-L32 (small cell lung carcinoma, suspension) | 0.867 | < 5.00 |
| H2810 (mesothelioma, adherent) | 0.984 | < 5.00 |
| NCI-H1650 (lung adenocarcinoma, adherent) | 0.979 | < 5.00 |

— the supplement of paper PMC4967469
